The record followed here is the supplement of paper PMC6531468.

The list shows a part of the results. These are enrichments in a pooled selection; single values are uncertain. Each score is taken over the longer molecules that contain the sequence shown.

Common to all, as to assay: 6-mer SELEX enrichment z-score vs GST control; IMP3 is the RNA-binding protein IGF2BP3; higher = more enriched by binding
One test deals with IMP3 KH1-4. The conditions noted are these: construct: KH1-4 (164-579); SELEX round: R4. On the procedure:
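SELEX-seq with GST-tagged IMP3 KH1-4 (Pro164-Lys579) and an N40 RNA pool, round 4. 6-mer z-score of sequence-tag enrichment normalised to the corresponding GST SELEX round; RNA k-mers written as DNA (T for U).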

Another test has as its system IMP3 RRM1-2. The conditions noted are these: construct: RRM1-2 (1-163); SELEX round: R2. On the procedure: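 SELEX-seq with GST-tagged IMP3 RRM1-2 (Met1-Asn163) and an N40 RNA pool, round 2. 6-mer enrichment z-score normalised to GST SELEX. RNA written as DNA (T = U).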
The subject of another test is IMP3 KH1-2. The conditions noted are these: construct: KH1-2 (164-376); SELEX round: R4. On the procedure:
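SELEX-seq with GST-tagged IMP3 KH1-2 (Pro164-Phe376) and an N40 RNA pool, round 4 (stringent 300/600 mM KCl washes). 6-mer z-score of sequence-tag enrichment normalised to the corresponding GST SELEX round; RNA k-mers written as DNA (T for U).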

Another test deals with IMP3 KH3-4. The conditions noted are these: construct: KH3-4 (377-579); SELEX round: R4. On the procedure: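 SELEX-seq with GST-tagged IMP3 KH3-4 (Pro377-Lys579) and an N40 RNA pool, round 4. 6-mer z-score of sequence-tag enrichment normalised to the corresponding GST SELEX round; RNA k-mers written as DNA (T for U).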
Chain of IMP3 KH3-4 (chain, as listed by the source): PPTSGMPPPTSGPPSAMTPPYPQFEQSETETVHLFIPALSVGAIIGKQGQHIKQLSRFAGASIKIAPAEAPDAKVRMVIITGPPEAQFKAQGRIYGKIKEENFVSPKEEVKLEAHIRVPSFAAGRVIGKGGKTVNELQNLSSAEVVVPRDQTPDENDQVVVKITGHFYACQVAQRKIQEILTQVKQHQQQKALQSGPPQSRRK

Chain of IMP3 RRM1-2 (chain, as listed by the source): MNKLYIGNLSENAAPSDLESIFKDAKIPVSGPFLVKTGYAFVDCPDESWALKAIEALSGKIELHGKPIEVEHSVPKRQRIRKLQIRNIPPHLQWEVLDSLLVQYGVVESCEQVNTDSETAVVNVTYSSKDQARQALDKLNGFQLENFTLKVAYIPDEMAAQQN
Chain of IMP3 KH1-2 (chain, as listed by the source): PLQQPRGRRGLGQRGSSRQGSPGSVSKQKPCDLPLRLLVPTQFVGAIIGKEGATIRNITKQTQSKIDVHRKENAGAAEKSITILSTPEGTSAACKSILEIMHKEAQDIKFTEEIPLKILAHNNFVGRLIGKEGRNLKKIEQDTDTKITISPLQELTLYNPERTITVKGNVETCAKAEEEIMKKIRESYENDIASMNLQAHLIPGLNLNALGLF
Chain of IMP3 KH1-4 (chain, as listed by the source): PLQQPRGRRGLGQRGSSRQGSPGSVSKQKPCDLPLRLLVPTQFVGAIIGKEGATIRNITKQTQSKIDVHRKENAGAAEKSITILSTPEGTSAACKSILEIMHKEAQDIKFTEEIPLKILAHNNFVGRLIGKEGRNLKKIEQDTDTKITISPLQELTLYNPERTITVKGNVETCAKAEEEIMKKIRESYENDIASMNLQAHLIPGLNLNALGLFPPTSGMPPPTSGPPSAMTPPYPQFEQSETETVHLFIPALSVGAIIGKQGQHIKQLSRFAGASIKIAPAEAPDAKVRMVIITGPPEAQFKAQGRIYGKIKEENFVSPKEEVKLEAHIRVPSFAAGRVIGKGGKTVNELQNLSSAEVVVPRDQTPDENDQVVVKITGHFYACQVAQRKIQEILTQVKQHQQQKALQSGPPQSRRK

AGGTAG: the “6-mer SELEX enrichment z-score” value is -0.238 in the test on IMP3 KH1-4, 0.218 in the test on IMP3 RRM1-2, -0.149 in the test on IMP3 KH1-2 and 0.037 in the test on IMP3 KH3-4.

Turning to AAAAAG, the “6-mer SELEX enrichment z-score” value was -1.55 with IMP3 KH1-4, -3.05 with IMP3 RRM1-2, -1.58 in the test on IMP3 KH1-2 and -0.155 in the test on IMP3 KH3-4.

As to GGGTAT, the “6-mer SELEX enrichment z-score” value with IMP3 KH1-4 was -0.027; in the test on IMP3 RRM1-2, 0.332; in the test on IMP3 KH1-2, 0.129; in the test on IMP3 KH3-4 it was 0.279.

Regarding GCTACC, the “6-mer SELEX enrichment z-score” value in the test with IMP3 KH1-4 was -0.265; in the test on IMP3 RRM1-2, -0.013; with IMP3 KH1-2 it was -0.318; in the test with IMP3 KH3-4, -0.546.

In the case of CTCGCT, the “6-mer SELEX enrichment z-score” value in the test on IMP3 KH1-4 is -0.273; in the test with IMP3 RRM1-2, 0.238; in the test on IMP3 KH1-2, -0.096; in the test with IMP3 KH3-4, -0.181.

With TGACTC, the “6-mer SELEX enrichment z-score” value in the test on IMP3 KH1-4 was -0.575; in the test with IMP3 RRM1-2 it was -0.238; with IMP3 KH1-2, -0.511; in the test on IMP3 KH3-4, -0.609.

Turning to CATTGC, the “6-mer SELEX enrichment z-score” value turned out to be 0.616 with IMP3 KH1-4, 0.825 with IMP3 RRM1-2, 0.519 with IMP3 KH1-2 and 0.192 with IMP3 KH3-4.

On to TCTAAC, for which the “6-mer SELEX enrichment z-score” value is 0.01 in the test on IMP3 KH1-4, -0.091 with IMP3 RRM1-2, -0.043 in the test on IMP3 KH1-2 and -0.163 with IMP3 KH3-4.

On to TCACAC, for which the “6-mer SELEX enrichment z-score” value stood at 1.46 in the test with IMP3 KH1-4, 3.05 in the test on IMP3 RRM1-2, 1.65 with IMP3 KH1-2 and 0.331 in the test with IMP3 KH3-4.

Turning to TCTTCG, the “6-mer SELEX enrichment z-score” value in the test on IMP3 KH1-4 was -0.192; in the test with IMP3 RRM1-2 it was 0.402; in the test with IMP3 KH1-2, -0.142; in the test with IMP3 KH3-4, -0.125.

As for GCAGCA, the “6-mer SELEX enrichment z-score” value in the test with IMP3 KH1-4 is 1.42; in the test on IMP3 RRM1-2 it was 0.815; in the test with IMP3 KH1-2 it was 1.13; in the test on IMP3 KH3-4, 0.706.

For the sequence CGCCCA, the “6-mer SELEX enrichment z-score” value with IMP3 KH1-4 was -1.19; in the test on IMP3 RRM1-2, -0.411; in the test on IMP3 KH1-2, -1; with IMP3 KH3-4, -1.62.

CATGGG: the “6-mer SELEX enrichment z-score” value in the test on IMP3 KH1-4 was 0.429; with IMP3 RRM1-2, 0.61; in the test on IMP3 KH1-2, 0.426; in the test on IMP3 KH3-4, 0.571.

On to AAGGCT, for which the “6-mer SELEX enrichment z-score” value with IMP3 KH1-4 was -0.086; in the test with IMP3 RRM1-2, 0.07; in the test with IMP3 KH1-2 it was -0.02; in the test with IMP3 KH3-4 it was 0.323.

Take AACCGG: the “6-mer SELEX enrichment z-score” value with IMP3 KH1-4 is -0.868; in the test with IMP3 RRM1-2 it was -1.34; with IMP3 KH1-2, -0.913; in the test on IMP3 KH3-4, -0.938.

With TCGTTA, the “6-mer SELEX enrichment z-score” value turned out to be 0.108 with IMP3 KH1-4, 0.225 in the test on IMP3 RRM1-2, 0.063 in the test on IMP3 KH1-2 and 0.224 in the test with IMP3 KH3-4.

In the case of CTTGGT, the “6-mer SELEX enrichment z-score” value with IMP3 KH1-4 is -0.277; in the test on IMP3 RRM1-2, 0.62; in the test with IMP3 KH1-2 it was -0.118; in the test on IMP3 KH3-4, -0.101.

Consider CGCCGC, for which the “6-mer SELEX enrichment z-score” value in the test on IMP3 KH1-4 is 0.152; in the test on IMP3 RRM1-2 it was -0.128; in the test with IMP3 KH1-2 it was 0.431; in the test with IMP3 KH3-4 it was -0.396.

GGCGTC: the “6-mer SELEX enrichment z-score” value with IMP3 KH1-4 is -0.298; with IMP3 RRM1-2, 0.524; with IMP3 KH1-2, -0.126; with IMP3 KH3-4, -0.092.

In the case of AAAAAC, the “6-mer SELEX enrichment z-score” value is -2.52 with IMP3 KH1-4, -2.88 in the test with IMP3 RRM1-2, -1.79 in the test with IMP3 KH1-2 and -1.08 in the test with IMP3 KH3-4.

As for CGAAAA, the “6-mer SELEX enrichment z-score” value in the test with IMP3 KH1-4 is -1.93; in the test with IMP3 RRM1-2 it was -2.85; in the test on IMP3 KH1-2 it was -1.76; in the test with IMP3 KH3-4, -1.34.

With GTCGGC, the “6-mer SELEX enrichment z-score” value came out at 2.49 in the test on IMP3 KH1-4, 0.75 in the test with IMP3 RRM1-2, 2.18 in the test with IMP3 KH1-2 and 1.87 with IMP3 KH3-4.

Consider GGGCAT, for which the “6-mer SELEX enrichment z-score” value in the test on IMP3 KH1-4 was 0.817; in the test with IMP3 RRM1-2, 0.463; in the test with IMP3 KH1-2, 0.762; in the test with IMP3 KH3-4 it was 0.889.

AGAGTC: the “6-mer SELEX enrichment z-score” value was 0.327 with IMP3 KH1-4, -0.142 in the test with IMP3 RRM1-2, 0.201 with IMP3 KH1-2 and 0.249 in the test on IMP3 KH3-4.
